According to the supplement of paper PMC11417369:
± gives the standard deviation of the averaged measurements. The list shows a part of the results.

tested on: PfAP2-LT AP2 domain (GST-tagged); experiment: gcPBM binding intensity (ln(normalized median fluorescence intensity)); higher = stronger DNA binding
Procedure, shortened: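 The highest Masliner-normalised natural-log median intensity across replicate spots of either probe orientation is reported as binding intensity. GST-tagged P. falciparum DNA-binding domains expressed in E. coli were applied for 1 h to an Agilent 4 × 180k array of primer-extended double-stranded 36-bp intergenic genomic probes plus negative controls, and bound protein was detected with Alexa488 anti-GST antibody and scanned at 488 nm.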

Row | Sequence | gcPBM binding intensity (ln)
1 | AAGTTGAAATAATGTGCACACATTTTTTTTTTTTTT [CACACA_site3368] | 9.02 ± 0.26
2 | CCCTTAATATAAAGCACACATATATATAATATATAT [CACACA_site4439] | 8.94 ± 0.33
3 | AAAAAAAAAAAAAAAAAAAACGAAAAACATCAAAGA [TGCATGCA_negctrl_site78] | 8.63 ± 0.52
4 | TATCCTTATATTTGCACACACACACTAGAAAATGAA [CACACA_site4714] | 9.68 ± 0.25
5 | ATTTATACTTATGTATGTACATATATACATATGTAT [XGTACX_site3979] | 9.14 ± 0.3
6 | ACTAAAAAATATATATGTACATAATAATATATTATT [XGTACX_site1260] | 8.69 ± 0.38
7 | ATAATAAAATAACTAGTGCATATTCAAAGGATTCAG | 8.98 ± 0.42
8 | ATTATGTGTCCACATGTAAGCTATCTTACTTATATA [CACACA_negctrl_site1227] | 8.9 ± 0.45
9 | CATATTTGTGGACACACACACATATTTATATATATA [CACACA_site5887] | 9.39 ± 0.34
10 | TACAAAAAAATAAAAAAAATTAAATAAATAAATATA [CACACA_negctrl_site45] | 8.38 ± 0.56
11 | ATAGTTACACAATGGTGTACAAGTCAATATATTTCT [XGTACX_site4614] | 8.81 ± 0.42
12 | TAAAAAAAAAAAAAAAGTACACACATACATATAAAT [XGTACX_site3752] | 9.12 ± 0.39
13 | ATTTTTTTTTTTTTATGTACATATAGGTGCAAATCA [XGTACX_site6748] | 8.55 ± 0.32
14 | ACAATGTCATTTGCTAGTACGCATATTGGTTGTAAA [XGTACX_site8924] | 8.91 ± 0.31
15 | TATTTTTTTTTTTTTTTTTTTTTAAAACATATCAAT [CACACA_negctrl_site925] | 8.35 ± 0.49
16 | ATATATATATATAATTGTACATATAATATAATATTA [XGTACX_site5216] | 8.63 ± 0.42
17 | AACACATGCTTGGTCACACACGTATGCATATTTAAA [CACACA_site5206] | 9.16 ± 0.29
18 | AATATGTTATAAATATGTTATAAATAATAAATAAAT [GTGCAC_negctrl_site135] | 8.72 ± 0.51
19 | ATATATATTATATATAGTACTTTTTTGCGCAAATAT [XGTACX_site6849] | 8.84 ± 0.42
20 | TCCTTTTTGAAATGTTGTACTTTTTTTATCTTTCAT [XGTACX_site953] | 8.81 ± 0.49
21 | TACATATATTTTTATACATGCATAACTTAGGACTTT [TGCATGCA_site113] | 8.62 ± 0.35
22 | TACCATATTTCTTCAAGTACGCATTATGTTAAAAAG [XGTACX_site345] | 8.51 ± 0.38
23 | ATATTTATATATATCATACACACTAATATGTATATT [CACACA_site3409] | 8.95 ± 0.42

Row | Sequence | gcPBM binding intensity (ln)
24 | TAATTATATATATACACACACATACAGACAAATAAA [CACACA_site3412] | 9.59 ± 0.28
25 | GAAATTTGTTATTGCACACAAATTTTTCTTTTTTTA [CACACA_site2339] | 8.79 ± 0.35
26 | TTTTATGAAAAGTATTGTACGTATAATTTATATGTA [XGTACX_site1639] | 8.57 ± 0.35
27 | ACATAAGACACAAATACACACAAAAATATGTAACAA [CACACA_site7836] | 9.37 ± 0.38
28 | TATGTATGTGCTTGTGCGCACCGATAATATAGCCAA | 8.95 ± 0.38
29 | TGCTATAATTTATATACACACAAATATATACGCATA [CACACA_site4096] | 8.94 ± 0.36
30 | TCTCATAGTAGACACACACACACACGCACATATATA [CACACA_site6916] | 10.1 ± 0.31
31 | ATAATAATTAACCTATGTACATAGGAAAGTCATAAA [XGTACX_site4387] | 8.93 ± 0.43
32 | AAAAAAAAAAAACACACACACACATACACATACATA [CACACA_site2858] | 10.1 ± 0.22
33 | GAAGAAAAATAAAAAGTGCAAAAAAAGTAAAAATTT [GTGCAC_site9897] | 9 ± 0.51
34 | AATGAATGTAAGAAAATACACACTAGTATAGTAACA [CACACA_site1955] | 9.21 ± 0.38
35 | TTGGAAAAAGTGAAATGTACATATATATTTATTATT [XGTACX_site6946] | 8.71 ± 0.54
36 | AATAATAAAGTGAACACACACATATAACATCTATAT [CACACA_site7868] | 9.25 ± 0.37
37 | AAAGGATTTATACTAGTGCAAAAATATAAAAATATA | 8.76 ± 0.53
38 | GAAGTTTTTTAAAGATGTACTTTTTAAAAATAATCT [XGTACX_site263] | 8.28 ± 0.4
39 | TCCATATATGCCTTATGTACATATACCAAATTAACC [XGTACX_site6513] | 8.79 ± 0.42
40 | TTTGGCTAGTTAGGCCGTACATGTAAATAATATATA [XGTACX_site1138] | 8.68 ± 0.42
41 | TTCTTATAAATATACACACACAAAATATCTACAATG [CACACA_site6487] | 9.16 ± 0.39
42 | CCTTAAAATAAGATATGTACGCAAAGGAAAACAAAG [XGTACX_site6057] | 8.96 ± 0.42
43 | TTATAAGATTTATGTACACACATATACTCACCTCTA [CACACA_site729] | 9.11 ± 0.55
44 | TGTGTAAGATCTTGGATGATGATAAGAATCTACTAG [CACACA_negctrl_site1167] | 8.64 ± 0.5
45 | GACACAAAAAAATAATAATAATAATAATAATAAATA [XGTACX_negctrl_site145] | 8.71 ± 0.39
